Experimental findings from the BET-seq Pho4 binding data (Le et al. 2018) are described below.

Some of the results follow. The energies were worked out here from pooled read counts, against the library average; single values are noisy.

The test has as its target T1, Pho4 (S. cerevisiae) (UniProt P07270).
T1 sequence: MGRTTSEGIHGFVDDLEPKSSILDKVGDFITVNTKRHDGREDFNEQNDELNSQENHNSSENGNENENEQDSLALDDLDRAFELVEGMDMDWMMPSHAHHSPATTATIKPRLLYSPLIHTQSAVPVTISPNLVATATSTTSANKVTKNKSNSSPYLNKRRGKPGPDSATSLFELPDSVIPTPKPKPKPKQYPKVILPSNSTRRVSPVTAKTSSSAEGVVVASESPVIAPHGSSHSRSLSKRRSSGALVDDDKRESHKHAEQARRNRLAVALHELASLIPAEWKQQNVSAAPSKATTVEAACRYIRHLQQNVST
The experiment in a line: relative binding free energy (BET-seq); higher = weaker binding. Particulars: reference: library average.
As for CTTGGCACGTGTGTAT, the “relative binding free energy” value is -0.04 kcal/mol. For GGAATCACGTGGGTGC the value was 0.11 kcal/mol; for GTTTGCACGTGGATGA, 0.03 kcal/mol; for AGCGTCACGTGTTAGT, -0.1 kcal/mol.

As for CTTTTCACGTGGATTA, the “relative binding free energy” value amounted to 0.3 kcal/mol. In the case of TTGCACACGTGAAGGT it was 0.17 kcal/mol.

Turning to AGGATCACGTGGGGGG, the “relative binding free energy” value stood at 0 kcal/mol. In the case of GCGGGCACGTGTGCGG it was -0.16 kcal/mol; in that of GTGTACACGTGTTAGT, 0.13 kcal/mol; in that of TAGGGCACGTGCGTTG, -0.19 kcal/mol. In the case of CGGATCACGTGAGTGG it was 0.44 kcal/mol.

In the case of AGATTCACGTGTTGGT, the “relative binding free energy” value amounted to 0.33 kcal/mol. In the case of TTGAGCACGTGCGGGG it was -0.07 kcal/mol; in that of GTAGTCACGTGTTTTT, 0.18 kcal/mol; in that of ATATGCACGTGATAGT, 0.04 kcal/mol.

GTTACCACGTGTGTTT: the “relative binding free energy” value worked out at 0.05 kcal/mol. For TGCTTCACGTGTAGGT the value was 0.18 kcal/mol; for GTGAACACGTGTTGAT, -0.02 kcal/mol; for GGGACCACGTGTATTT, 0.14 kcal/mol. As to GTGGTCACGTGGTTTC, the “relative binding free energy” value is 0.21 kcal/mol. For CAGGGCACGTGGTTTT the value was -0.29 kcal/mol; for TGAATCACGTGCGTTG, 0.04 kcal/mol.

Regarding CTTATCACGTGTTGAT, the “relative binding free energy” value came to 0.18 kcal/mol. With AGGTTCACGTGCTCGT, the “relative binding free energy” value worked out at 0.22 kcal/mol.

Turning to GTACTCACGTGAGTTG, the “relative binding free energy” value turned out to be 0.3 kcal/mol. Consider CGGAGCACGTGTTTGG, for which the “relative binding free energy” value was -0.02 kcal/mol. With TAGGACACGTGATAGT, the “relative binding free energy” value was 0.09 kcal/mol. In the case of GTTGTCACGTGTTCTA it was 0.12 kcal/mol. Turning to TGATTCACGTGGGGGT, the “relative binding free energy” value is 0.22 kcal/mol.

As to TGAAGCACGTGGCGGT, the “relative binding free energy” value was -0.17 kcal/mol. For ATTGTCACGTGAAAGC the value was 0.24 kcal/mol; for CGTGTCACGTGAGTGA, 0.25 kcal/mol. In the case of GGTTGCACGTGAAGTT it was 0.23 kcal/mol. For TGGAGCACGTGGGGGG the value was -0.19 kcal/mol; for GTTAACACGTGACGTT, 0.24 kcal/mol; for TTTGCCACGTGTGTAT, -0.12 kcal/mol. Consider GGTATCACGTGGTATG, for which the “relative binding free energy” value came to 0.09 kcal/mol. With GTTAACACGTGTCGTT, the “relative binding free energy” value was 0.01 kcal/mol. As to ATGTGCACGTGCTTAT, the “relative binding free energy” value was -0.12 kcal/mol.

Consider TGTGTCACGTGTACTG, for which the “relative binding free energy” value is 0.14 kcal/mol. For GGAATCACGTGTCGGG the value was 0.2 kcal/mol; for TCAGTCACGTGTTTGG, -0.07 kcal/mol; for AGTATCACGTGAGTGA, 0.34 kcal/mol. For GGAGTCACGTGGGGGG the value was 0.04 kcal/mol; for ATGGTCACGTGTTGAC, 0.13 kcal/mol; for TCTTGCACGTGGTTGT, 0.07 kcal/mol. In the case of TCAGTCACGTGAGGGT it was 0.22 kcal/mol; in that of GTGGGCACGTGGCTTG, -0.08 kcal/mol. With ATTGTCACGTGAGTCT, the “relative binding free energy” value was determined as 0.24 kcal/mol. Take TCTATCACGTGTGGAT: the “relative binding free energy” value was 0.26 kcal/mol. As for TATTACACGTGGCGGG, the “relative binding free energy” value amounted to 0.01 kcal/mol.

Regarding GTTAGCACGTGGAGCA, the “relative binding free energy” value was determined as 0 kcal/mol. As for AGGAGCACGTGATGAA, the “relative binding free energy” value came out at 0.15 kcal/mol. With TATTGCACGTGCATGG, the “relative binding free energy” value was -0.07 kcal/mol. In the case of AGCACCACGTGGGGGG it was -0.23 kcal/mol; in that of TGTCGCACGTGGGATA, -0.21 kcal/mol. Take GGGGGCACGTGGTAAA: the “relative binding free energy” value was -0.01 kcal/mol. In the case of TGAGACACGTGGAGCG it was 0.11 kcal/mol. For TGAGCCACGTGTGTAG the value was -0.04 kcal/mol. With AAGGTCACGTGATCGG, the “relative binding free energy” value turned out to be 0.32 kcal/mol. In the case of TTCGTCACGTGATGGA it was 0.16 kcal/mol; in that of AATGTCACGTGAGTGA, 0.18 kcal/mol. For ATGTTCACGTGATGTC the value was 0.17 kcal/mol; for TGAACCACGTGTGTTG, 0.03 kcal/mol. In the case of ATGTACACGTGGTCAG it was -0.12 kcal/mol. With CGGAGCACGTGTGGGT, the “relative binding free energy” value was -0.01 kcal/mol. CTAGTCACGTGTGGGG: the “relative binding free energy” value is 0.08 kcal/mol. With CATATCACGTGGTGAT, the “relative binding free energy” value is 0.14 kcal/mol. For AGGTGCACGTGTATCG, the “relative binding free energy” value was found to be 0.07 kcal/mol. In the case of TGTTTCACGTGTGATA it was 0.26 kcal/mol; in that of GAGGTCACGTGAAGAG, 0.34 kcal/mol. For AAAAGCACGTGTGGTG, the “relative binding free energy” value was -0.07 kcal/mol. On to ATAGTCACGTGCTTGT, for which the “relative binding free energy” value was -0.13 kcal/mol. In the case of ATTTTCACGTGATATG, the “relative binding free energy” value came to 0.25 kcal/mol. Consider GGTCACACGTGAGTGT, for which the “relative binding free energy” value is 0.43 kcal/mol. In the case of ATGAGCACGTGAATAG it was 0.28 kcal/mol. Consider GGTTTCACGTGCTCTT, for which the “relative binding free energy” value stood at 0.27 kcal/mol.

Turning to TTTGTCACGTGAGTTG, the “relative binding free energy” value amounted to 0.35 kcal/mol. Consider TTCTTCACGTGCATGT, for which the “relative binding free energy” value is 0.23 kcal/mol. For TGCAACACGTGGTGAG, the “relative binding free energy” value came out at 0 kcal/mol. In the case of TCTAGCACGTGATAGT it was 0.15 kcal/mol; in that of AGGATCACGTGCGTGA, 0.08 kcal/mol; in that of CGGGACACGTGTAGGG, 0.11 kcal/mol.

CTGAACACGTGGGGAG: the “relative binding free energy” value is -0.03 kcal/mol. In the case of CCGGTCACGTGGTAGG it was 0 kcal/mol; in that of TTAAACACGTGGCGTG, -0.09 kcal/mol; in that of GTGGGCACGTGCGTTT, -0.08 kcal/mol. As to GGGGGCACGTGCTGCT, the “relative binding free energy” value is -0.21 kcal/mol. Regarding GCGTTCACGTGTAATA, the “relative binding free energy” value is 0.55 kcal/mol.

For the sequence TCGTGCACGTGTGGAA, the “relative binding free energy” value was 0.09 kcal/mol. For the sequence CGCGGCACGTGGTGGT, the “relative binding free energy” value is -0.15 kcal/mol.

Take TTGAACACGTGCGTTT: the “relative binding free energy” value is -0.03 kcal/mol. In the case of GAACGCACGTGGTGTG, the “relative binding free energy” value is -0.15 kcal/mol. In the case of CTTGACACGTGATTGG it was 0.09 kcal/mol; in that of CAGGACACGTGTTGGT, -0.06 kcal/mol; in that of TATGGCACGTGAGAGT, 0 kcal/mol. For AATGTCACGTGGTGTT the value was 0.13 kcal/mol; for TAATTCACGTGCGTGG, 0.16 kcal/mol; for TTGGGCACGTGTCTGT, -0.18 kcal/mol. For TTTAGCACGTGTGCCT the value was 0.06 kcal/mol. Regarding TATATCACGTGTTGCA, the “relative binding free energy” value came out at 0.19 kcal/mol.

Consider GGAGACACGTGGGAGT, for which the “relative binding free energy” value came out at 0.01 kcal/mol.

For TCAATCACGTGGCGGT, the “relative binding free energy” value was found to be 0.21 kcal/mol.

For the sequence AAGGACACGTGGGACG, the “relative binding free energy” value was -0.08 kcal/mol.

Regarding GGGTGCACGTGCACTG, the “relative binding free energy” value is 0.04 kcal/mol. For CTATTCACGTGGGTGC the value was 0.15 kcal/mol; for GGTGACACGTGGCGCT, 0.02 kcal/mol; for CAATTCACGTGTTGTT, 0.29 kcal/mol. In the case of GTGCTCACGTGGGAAA it was 0.31 kcal/mol; in that of GGGCTCACGTGTTTTA, 0.43 kcal/mol. In the case of TCAGGCACGTGTATAG it was -0.1 kcal/mol; in that of GGGTACACGTGAAAGT, 0.39 kcal/mol; in that of GTTGTCACGTGGTACG, 0.03 kcal/mol. As to CGGAGCACGTGTAGGA, the “relative binding free energy” value is -0.1 kcal/mol.

For AGAAGCACGTGAATGT, the “relative binding free energy” value is 0.11 kcal/mol.
